Assay results as given in PubChem BioAssay AID463173 (ICCB-Longwood Screening Facility, Harvard Medical School, 2010).
The whole screen tested about 52,000 compounds, of which about 1,700 (3.3%) were called active. No stated cut-off is given here; in the data, active means survival mostly below about 52% (no sharp cut-off); inactive means mostly above about 56%. Some of the results follow.

System: Wild type
Experiment: S. aureus survival, RN4220 and DeltatarO strains – OD600, teichoic acid synthesis inhibitors, primary screen (AID 463173)
Conditions: S. aureus RN4220 wild type/DeltatarO growth, OD600, 18 h, active compounds read low, screened at 18.75 µg/mL (by protocol)

SMILES | survival
CCCCCSc1nc2sc3c(c2c(=O)n1-c1ccccc1)CCN(C(C)=O)C3 | inactive: 58%
COc1ccc(-c2oc3ncn4nc(COc5c(C)cccc5C)nc4c3c2-c2ccc(OC)cc2)cc1 | inactive: 79%
C=CCN1C(=O)C(CC(=O)NCC)SC1=Nc1ccccc1OC (centres undefined) | inactive: 109%
Cc1ccc(Cn2c(SCc3ccc(C(=O)N4CCCCCC4)cc3)nc3ccncc32)cc1 | inactive: 80%
Cc1cccc(NC(=O)c2sc(-n3nc(C)c(Cc4ccc5c(c4)OCO5)c3C)nc2C)c1C | inactive: 119%
COc1cc(OC)cc(N2C(=O)N(CC(=O)c3ccc(F)cc3)c3ccccc3S2(=O)=O)c1 | inactive: 93%
COc1ccc(CN2CCc3nc(SCC(=O)Nc4cc(C)cc(C)c4)[nH]c(=O)c3C2)cc1 | inactive: 81%
COc1ccc(-c2noc(Cn3c(=O)c4ccccc4n(CC(=O)Nc4cccc(OC)c4)c3=O)n2)cc1 | inactive: 82%
COc1ccc(-c2cc(C)no2)cc1S(=O)(=O)NC(C)C | inactive: 84%
Cc1cc(C)c(C#N)c(SCC(=O)Nc2sc3c(c2C#N)CCC(C(C)(C)C)C3)n1 (centres undefined) | inactive: 110%
CCCOC(=O)CSc1ncnc2sc3c(c12)CCC(C)C3 (centres undefined) | active: 7%
Cc1ccc(NC(=O)CSc2ncc3c(n2)-c2ccc(Cl)cc2N(C)S3(=O)=O)cc1F | inactive: 69%
Cn1nnnc1SCCCNCc1ccccc1OCc1ccccc1Cl | inactive: 109%
COc1ccc(-c2noc(CSc3nnc(C)n3-c3ccc(OC)cc3)n2)cc1 | inactive: 85%
COc1ccccc1NC(=O)c1sc2nc(N3CCOCC3)c3c(c2c1N)CC(C)(C)OC3 | inactive: 64%
Cc1c(Cl)cccc1NC1=NCC(=O)N1C1CCCC1 | inactive: 126%
Cc1cccc(Cn2c(=O)n(CC3CCC(C(=O)N4CCOCC4)CC3)c(=O)c3sccc32)c1 (centres undefined) | inactive: 68%
COC(=O)/C=C1/N/C(=N/c2nc3ccccc3s2)NC1=O | inactive: 88%
O=C(NCc1cccs1)c1ccc(Cn2c(SCc3cccc(F)c3)nc3cccnc32)cc1 | inactive: 49%
CCCCOC(=O)c1ccc(NC(=O)Cn2nnc3sc4c(c3c2=O)CCCC4)cc1 | inactive: 85%
CCOC(=O)c1c(NC(=O)c2cc3nc(-c4ccc(OC)cc4)cc(C(F)(F)F)n3n2)sc2c1CCC(C)C2 (centres undefined) | inactive: 87%
CCc1cccc(NC(=O)C(Cc2ccccc2)NS(=O)(=O)c2ccc3c(c2)oc(=O)n3C)c1 (centres undefined) | inactive: 131%
COc1ccccc1-c1nc2c(c(SCC(=O)Nc3c(C)cc(C)cc3C)n1)Cc1c(CO)cnc(C)c1O2 | inactive: 85%

SMILES | survival
CCC(=O)N1CCc2cc(S(=O)(=O)CCC(=O)NCc3ccc(C)cc3)ccc21 | inactive: 83%
CCCN1C2CCCC1CC(NC(=O)c1ccc(F)cc1)C2 (centres undefined) | inactive: 108%
O=C(O)C1Cc2c([nH]c3ccccc23)C(Cc2ccccc2)N1 (centres undefined) | inactive: 117%
CCN1/C(=C2\C(=O)N(c3ccc(Cl)cc3)N=C2C)C=Cc2ccccc21 | inactive: 96%
CCOc1ccc(-c2cc(C(=O)N3CCN(S(=O)(=O)c4cc(Cl)ccc4OC)CC3)[nH]n2)cc1 | inactive: 45%
Cc1ccc(N2C(=O)N(CC(=O)C(C)(C)C)c3ccccc3S2(=O)=O)cc1C | inactive: 119%
CCc1cccc(NC(=O)c2cc3c(=O)n(Cc4ccc(OC)cc4)ccc3nc2C)c1 | inactive: 81%
CCCSc1nnc2c(n1)OC(c1sccc1C)Nc1ccccc1-2 (centres undefined) | inactive: 92%
CCOc1ccc(CCNC(=O)c2ccc(Nc3nc4ccccc4n4nnnc34)cc2)cc1OCC | inactive: 148%
CS(=O)(=O)n1c(=O)sc2ccccc21 | inactive: 121%
Cc1c(Cl)cccc1NC(=O)CN1C(=O)COc2ccc(S(=O)(=O)N3CCOCC3)cc21 | inactive: 95%
CCOC(=O)c1ccc(NC(=O)c2c(N3CCCC3=O)c3cc(OC)ccc3n2C)cc1 | inactive: 83%
Cc1ccc(C)c(N2CCN(C(=O)Cn3ncc4ccsc4c3=O)CC2)c1 | inactive: 87%
Cc1cc2oc(C(=O)N(Cc3ccccc3F)C3CCS(=O)(=O)C3)c(C)c2cc1Cl (centres undefined) | inactive: 71%
CCOc1ccc(C(=O)c2oc3ccccc3c2NC(=O)Cc2coc3cc(C)cc(C)c23)cc1 | inactive: 109%
CCc1ccc(Cn2c(CNS(=O)(=O)c3ccc(F)c(Cl)c3)nc3cccnc32)cc1 | active: -3%
CC(=O)N1CCCC1c1nc2ccccc2n1Cc1ccccc1 (centres undefined) | inactive: 87%
Cc1ccc(C2CC(=O)Nc3cc4c(cc32)OCCO4)cc1 (centres undefined) | inactive: 140%
CC1=C(C(=O)OCC2CCCCC2)C(c2cccc(Cl)c2Cl)CC(=O)N1 (centres undefined) | inactive: 76%
OCC1=CC[N+]2(Cc3ccccc3)CCC(O)C12 (centres undefined) | inactive: 99%
Cc1ccc(CNc2ncccc2-c2nc(-c3ccc(Cl)cc3)no2)cc1 | inactive: 87%
O=C(CCCn1c(=O)c2sccc2n(Cc2ccc(Cl)cc2)c1=O)NCc1ccc2c(c1)OCO2 | inactive: 87%
COc1ccccc1N1CCN(S(=O)(=O)CCNC(=O)COc2ccccc2F)CC1 | inactive: 89%

SMILES | survival
Cc1scc(CN2CCN(c3ccc(F)cc3)CC2)c1C | inactive: 87%
COC(=O)c1sccc1S(=O)(=O)N1CCN(c2ccc(Cl)cc2)CC1 | inactive: 59%
CCOC(=O)c1ccccc1NC(=O)c1cc2c(s1)-c1ccccc1SC2 | inactive: 41%
CC1=C(c2ccc(Cl)cc2)S(=O)(=O)N=C1N1CCC(C(=O)NCCc2ccco2)CC1 | inactive: 55%
COc1ccc(Br)cc1CNC(=O)CCc1cn(Cc2ccc(C)cc2)c2ccccc12 | inactive: 84%
Cc1ccc(-c2nc(S(=O)(=O)c3ccccc3)c(SCC(=O)NC3CCCCC3)o2)cc1 | inactive: 73%
CC(C)c1ccc(NC(=O)CN2C(=O)CSc3ccc(S(=O)(=O)N4CCCC4)cc32)cc1 | inactive: 91%
CC(C)CC(NC(=O)C1CCCCC1)C(=O)Nc1cccc(C(F)(F)F)c1 (centres undefined) | inactive: 64%
Cc1ccc(Cl)cc1NC(=O)c1cc(CN2CCCC2)on1 | inactive: 78%
CCS(=O)(=O)N(CC(=O)Nc1sc(C)c(C)c1C(N)=O)Cc1ccc(F)cc1 | inactive: 100%
COc1ccc(CCNC(=O)CCc2cn(Cc3ccc(F)cc3)c3ccccc23)cc1OC | inactive: 104%
Cc1ccc(Cl)cc1N1CCN(C(=O)c2nn(C)c3c2CS(=O)(=O)c2ccccc2-3)CC1 | inactive: 67%
CCc1ccc(NC(=O)c2ccc(NS(=O)(=O)c3c(C)noc3C)cc2)cc1 | inactive: 61%
Cc1cccc(N2CCN(C(=O)c3cccn3-c3nnc(N4CCCCC4)s3)CC2)c1C | inactive: 68%
O=C(NC1CC1)c1ccc(Cn2c(SCc3ccc(F)cc3)nc3cccnc32)cc1 | inactive: 73%
COc1ccc(-c2cc(C(F)(F)F)nc(SCCC(=O)Nc3cccc(OC)c3)n2)cc1 | inactive: 65%
CCc1cccc(C)c1NC(=O)c1cc(S(=O)(=O)N2CCCCCC2)cn1C | inactive: 92%
CCCNc1ncnc2c1c(-c1ccccc1)cn2-c1ccc(OCC)cc1 | inactive: 102%
COc1ccc(NC(=O)CCn2c(-c3ccc(F)cc3)cc(C(C)=O)c2C)c(OC)c1 | inactive: 135%
O=c1cc(CSc2ccccc2)[nH]c2ccc(F)cc12 | inactive: 72%
O=C(COc1ccc(F)cc1)Nc1ccc(S(=O)(=O)N(Cc2ccccc2)c2ccccc2)cc1 | inactive: 115%
CCc1ccc(CNC(=O)c2sc3nc[nH]c(=O)c3c2C)cc1 | inactive: 105%
CCCOc1ccc(C(=O)Nc2ccc(-c3cc4ccccc4oc3=O)c(C)c2)cc1 | inactive: 85%

SMILES | survival
CCn1c(NC(C)=O)nc2ccccc21 | inactive: 108%
COC(=O)CSc1nnc(CNc2ccc(Cl)cc2)n1Cc1ccccc1 | inactive: 115%
Cc1ccc(NC(=O)c2c(C)oc3ccc(O)c(CN(C)Cc4ccccc4)c23)c(C)c1 | inactive: 82%
CCc1ccc(Nc2nnc(-c3cc4cc(OC)ccc4oc3=O)s2)cc1 | inactive: 138%
CCN(C(=O)Cc1c(C(=O)O)c(C)cn1C)c1cccc(Cl)c1 | inactive: 72%
CCc1c(C)nc(SCc2nc(-c3ccccc3C)no2)[nH]c1=O | inactive: 77%
COc1ccc(OC)c(CNc2ncnc3c2nc2n3CCCC2)c1 | inactive: 68%
CCCn1nnc(NC(=O)Cc2ccccc2)n1 | inactive: 107%
COc1cc(NC(=O)C(NS(=O)(=O)c2ccc3c(c2)CCCC(=O)N3)C(C)C)cc(OC)c1 (centres undefined) | inactive: 78%
CCOc1ccc2nc(NCCNC(=O)Nc3cccc(Cl)c3)c(C#N)cc2c1 | inactive: 108%
Cc1ccc(NC(=O)c2sc3nc(-c4ccncc4)ccc3c2N)cc1 | inactive: 157%
CCOc1ccc(S(=O)(=O)c2c(C(=O)c3ccc(C)c(C)c3)cnc3ccccc23)cc1 | inactive: 80%
Cc1ccc(CNC(=O)CCc2nnc3n(C)c(=O)c4sccc4n23)cc1 | inactive: 65%
CC(=O)Nc1ccc(Nc2c(CCC(C)C)c(C)c(C#N)c3nc4ccccc4n23)cc1 | inactive: 142%
Cn1ncc(Cl)c1C(=O)NC(=S)Nc1sc2c(c1C#N)CCCC2 | inactive: 107%
Cc1ccccc1C(=O)Nc1nnc(S(=O)(=O)N(C)c2ccc(Cl)cc2)s1 | inactive: 64%
Cc1ccccc1Cn1c(=O)n(CCc2ccccc2)c(=O)c2sc3ccccc3c21 | inactive: 86%
COC(=O)c1sccc1S(=O)(=O)N(CC(=O)Nc1ccc(C)c(F)c1)c1ccc(C)c(C)c1 | active: -1%
NC1=NC2=C(CCCC2)C2(CCCCC2)S1 | inactive: 106%
Cc1ccc(-c2nn(C)c(=O)c3ccccc23)cc1S(=O)(=O)NCCCN(C)C | inactive: 71%
